Experimental data: the supplement of paper PMC10126150
Values marked as one replicate rest on one cluster of the flow cell; about a third of the high ones do not repeat.

System: ATP
Assay: switch fluorescence ratio, 500 uM ATP over buffer (Cy3 cluster intensity, sum of 5 cycles each) (fold (ratio)); higher = stronger signal-on switching upon ATP binding; sequences stand for … in TCGTCGGCAGCGTCAGATGTGTATAAGAGACAGTTTTTTTTTTTTTTTTTTTTTTTTT…TC
Conditions: aptamer strand: ATP DNA aptamer (quencher-CACCTGGGGGAGTATTGCGGAGGAAGG + anchor), 100 nM annealed; ATP concentration: 500 uM; one replicate
How it was run: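 Clusters carrying Cy3-labelled switching strands on a modified Illumina MiSeq flow-cell were annealed to 100 nM quencher-labelled ATP aptamer and imaged in selection buffer. They were imaged again after 15 min with 500 uM ATP at 22 °C, over five buffer/ATP cycles with NaOH stripping and re-annealing in between. For each cluster, the fluorescence ratio is the summed Cy3 intensity of the target cycles divided by that of the buffer cycles, averaged per switch-domain sequence. Clusters outside 100-1000 RFU were left out.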
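Further: ATP exposure 15 min at 22 °C before imaging.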

| Sequence | switch fluorescence ratio |
| --- | --- |
| CCGGGAATCC | 1.46 |
| CTGATAGAGT | 0.964 |
| AGGATAGCTA | 0.996 |
| AACCGCTGCG | 1.22 |
| ATAGCGTTGA | 1.05 |
| CATGGGCCCG | 1.07 |
| TATTGGCGGA | 1.05 |
| TAACCGTAG | 1.14 |
| AAGCAATGGT | 2.15 |
| GCGGGATGGA | 1.02 |
| TATCAAATCG | 1.02 |
| TACAGCGACG | 0.978 |
| TGTTTCGCGC | 1.02 |
| GGAAAGCGAC | 1.2 |
| CCGTGCCGCG | 1.09 |
| TGTCTGGCGT | 1.01 |
| CGGCAGTTCT | 0.999 |
| TGGCAATCTG | 1.52 |
| GCGTATTCGT | 1 |
| AGAAAAGATC | 1.02 |
| GAACTGTATT | 1.07 |
| CCAGTCGCCC | 1.03 |
| CCAATGTACC | 1.19 |

| Sequence | switch fluorescence ratio |
| --- | --- |
| CAATATGAGC | 0.988 |
| CAGAGTGTGT | 0.964 |
| AAGAAACTAA | 1 |
| GCAGACAGTT | 1.03 |
| CCGGCGGGAA | 2.14 |
| CATTAATCCT | 1.08 |
| GCGAACCTGA | 1.51 |
| TATGGCAGGC | 1.17 |
| CCTGTGTTTC | 1.06 |
| TTCACGGTTA | 1.06 |
| GGCTATTGAG | 1 |
| AAAAGGTTCG | 1.02 |
| AATTAGGAGG | 1 |
| TCTATGAGCC | 0.987 |
| AATAATAGAG | 0.953 |
| GAGCCCATGA | 1.02 |
| CGAGGCCGCG | 0.971 |
| ACCAGTGTGG | 1.06 |
| AACTCAATTT | 1.03 |
| AATATCCAT | 0.951 |
| GGGTCGGCAA | 1.01 |
| AGGACACCGT | 1.02 |
| TTACACAGC | 1.07 |

| Sequence | switch fluorescence ratio |
| --- | --- |
| AACGTGCCGC | 1.24 |
| GCACCGGACA | 1.18 |
| CTTGAGGATG | 1.01 |
| ATCCATAGGG | 1.01 |
| ACGGGATGCT | 1.11 |
| AGCTGACTTA | 1.05 |
| GCCGACCGGG | 0.985 |
| ATCGCACATC | 1.94 |
| CTGCTATCTC | 1.9 |
| TTAGCTCG | 0.984 |
| TATTGGCTGC | 1 |
| ACTCTATAC | 2.15 |
| ACAGCGACT | 1.1 |
| CTAAGTGTTT | 0.981 |
| TATCAGTTTG | 0.986 |
| CGTTCGGTTG | 1.01 |
| AGCATCCACT | 1.11 |
| CGTTCTAAGT | 1.01 |
| CGACGTCGAT | 1.03 |
| TAGAGGGCCT | 1.01 |
| TACGAGAATG | 1.02 |
| CACCCATGG | 1.32 |
| CGCGGCAGAA | 1.06 |

| Sequence | switch fluorescence ratio |
| --- | --- |
| AAAATGTACG | 0.941 |
| CGGCTTCTAG | 0.97 |
| TACTAATAAT | 1.04 |
| CTTGAGTCGT | 0.932 |
| CAGAGCAGGT | 1.13 |
| AAAGAACGT | 1 |
| AATCATTTAC | 1.34 |
| AACGTGAGCT | 1.06 |
| TCTTAACTAC | 1.08 |
| CACAGATGGC | 1.01 |
| AGTGAAGAG | 0.997 |
| ATGGCTCCGA | 1.09 |
| TTCCCAGCGA | 2.68 |
| GACGCGAGG | 1.2 |
| AGTGACTGAA | 0.996 |
| CACGTAGGTC | 1.03 |
| TATCTGAGTA | 1.01 |
| GGCCAAAGCC | 0.961 |
| CAGCTTGTGC | 1.01 |
| CCTGACCAAG | 1.03 |
| TGCGTATCGA | 0.974 |
| GGGTTCCAGA | 1.03 |
| CGACTATGGG | 0.998 |

| Sequence | switch fluorescence ratio |
| --- | --- |
| CAGAAAATGT | 1.01 |
| CGTTCGACGT | 1.01 |
| TCGTGGCCAG | 0.953 |
| GACCCGGCCT | 1.05 |
| AAGACTTATG | 0.99 |
| GGATAAATAC | 1.34 |
| TCGACATTCA | 1.03 |
| ATAAACTA | 1.01 |
| ACCCCCAGAA | 1.32 |
| CCATCTGTGA | 1.07 |
| CACGTGGCGT | 1.03 |
| CACCGATACC | 1.46 |
| ACTTGACCGG | 1.09 |
| TTGAGGAAAA | 0.992 |
| CCGACCGTGG | 1.12 |
| TAAGAGAGGC | 1.02 |
| GCATGCGGGT | 1.01 |
| AGCGTAAAAA | 0.97 |
| AGCGTTAAAA | 0.961 |
| AAATCCGCTC | 2.11 |
| GCTCATTAAT | 1.01 |
| CTAGTTACC | 1.01 |
| GAGCACCTGT | 1.01 |

| Sequence | switch fluorescence ratio |
| --- | --- |
| ATCAGAGTGG | 0.975 |
| AAGCCCATTT | 1.01 |
| AGACATAAAA | 1.01 |
| AATTTCCTG | 1.04 |
| CAGTAGTCGT | 0.98 |
| GATACACGAA | 1.04 |
| AGACTCTTAA | 1.01 |
| TATTGGGCA | 0.996 |
| GAGAGCCTTG | 0.971 |
| GTGAGTATTT | 0.979 |
| GTTAATTCTA | 0.982 |
| TGGGCATTGC | 1.04 |
| AGAATGGGTA | 0.989 |
| ACCTGAAAGA | 1.05 |
| TGTGCGGGTG | 1.09 |
| AAAGCACCTG | 1.1 |
| AGAAGGCTCC | 1 |
| TCGTAGTCGG | 0.93 |
| GAAGGTGGAC | 1.03 |
| GATGCTAAAA | 1.07 |
| CTGGCTTGTC | 1.08 |
| TCTTCGCATA | 2.49 |
| ATTGCAACGC | 0.961 |

| Sequence | switch fluorescence ratio |
| --- | --- |
| CAGGCAGATC | 1.07 |
| GGTTGGAT | 0.983 |
| TAGGTACTGT | 1.03 |
| GTCGCCTGGA | 1.01 |
| CGTAACTGAG | 1 |
| AGTGAGTTAT | 1.01 |
| GGGGAGGACG | 0.957 |
| ACAGGGTCGC | 1.01 |
| ACGTCTACGA | 1.15 |
| AAATGTTGCG | 1 |
| TACCCCGTGC | 1.35 |
| CGGCGTGCCT | 0.993 |
| TATGCGTATT | 0.991 |
| GCCTTTTGAC | 1.05 |
| GGTAAGTTTT | 1.01 |
| CTCATTCGGA | 0.996 |
| GGGGAGATG | 1.02 |
| GCACTAGCTA | 0.995 |
| AACCTTATAC | 1.54 |
